Measured values: PubChem BioAssay AID1768 (National Center for Advancing Translational Sciences (NCATS), 2009)
The whole screen tested about 270,000 compounds, of which about 620 (0.23%) were called active. This list was built around the results that the source calls inconclusive (neither active nor inactive); the mix of calls is not that of the screen. Calls come from the whole dose curve; as a rule, active = well fitted inhibition curve with a large enough effect in the polarisation, with a control signal flat (not every such curve was filed as active); inconclusive = small, poorly fitted or top-dose-only effect, or effect the other way, or a change in a side signal; inactive = no such curve, though single readings can be large or run the other way; the % refers to the polarisation. Potencies beside an inconclusive call are fits to weak or partial responses and may not hold up. A note “side channel” means that the fit belongs to a control or component signal, not to the main read-out.

Target: Menin (Homo sapiens) (UniProt O00255)
Assay: qHTS Assay for Inhibitors Targeting the Menin-MLL Interaction in MLL Related Leukemias: Competition With Texas Red Labeled MLL-derived Mutant Peptide; for FP activity change, negative = inhibition: % of control where 0% means no effect
Conditions: fluorescence polarization; FP activity change, negative = inhibition: at 61.6 µM (top of the series)
Potency is the fitted concentration of half-maximal effect; tags give direction and shape of the fitted curve or compound fluorescence and quenching.

UniProt O00255, sequence (O00255 whole entry, looked up): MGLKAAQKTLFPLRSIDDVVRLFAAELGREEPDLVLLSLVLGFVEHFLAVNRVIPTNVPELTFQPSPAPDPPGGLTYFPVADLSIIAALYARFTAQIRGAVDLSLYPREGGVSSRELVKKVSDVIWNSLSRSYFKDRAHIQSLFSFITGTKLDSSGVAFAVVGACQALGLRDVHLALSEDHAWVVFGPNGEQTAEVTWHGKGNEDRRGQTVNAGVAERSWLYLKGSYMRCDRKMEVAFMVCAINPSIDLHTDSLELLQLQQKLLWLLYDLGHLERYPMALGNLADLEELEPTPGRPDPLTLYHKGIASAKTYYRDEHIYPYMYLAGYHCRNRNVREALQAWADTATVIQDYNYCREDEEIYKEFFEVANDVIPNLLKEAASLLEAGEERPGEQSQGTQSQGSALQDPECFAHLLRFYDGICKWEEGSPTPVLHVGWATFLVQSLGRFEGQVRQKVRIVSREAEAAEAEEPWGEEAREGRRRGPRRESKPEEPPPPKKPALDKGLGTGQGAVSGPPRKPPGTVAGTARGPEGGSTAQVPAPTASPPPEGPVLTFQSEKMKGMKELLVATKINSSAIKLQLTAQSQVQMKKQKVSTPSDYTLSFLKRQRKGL

Row | SMILES | Potency | FP activity change, negative = inhibition
1 | CN(C)S(=O)(=O)c1ccc(NC(=O)CN2CCCCCC2)cc1 | inconclusive: 22.4 µM [fluorescent, partial curve] | –
2 | CCn1ncc(CNC(=O)C2(C)CC2(Cl)Cl)c1C (stereo unspecified) | inconclusive: 1.41 µM [inhibitor, full curve, poor fit] | –
3 | COc1ccc(NC(=O)NNC(=O)c2ccc3ccccc3c2O)c(OC)c1 | inconclusive: 25.1 µM [quencher, side channel, partial curve] | –
4 | CCOC(=O)c1c(C)n(-c2ccccc2)c2ccc(O)cc12 | inconclusive: 31.6 µM [inhibitor, single point] | –
5 | Cc1c(C)c2ccc(OCC(=O)N3CC[C@@]4(O)CCCC[C@H]4C3)c(C)c2oc1=O | inconclusive: 17.8 µM [fluorescent, side channel, partial curve] | –
6 | Cc1ccc(NC(=O)c2cc(-c3ccc(C)o3)nc3ccccc23)nc1 | inconclusive: 25.1 µM [inhibitor, single point] | –
7 | Cc1ccccc1C1c2[nH]c3ccccc3c2C[C@H]2C(=O)N(C3CCN(Cc4ccccc4)CC3)CC(=O)N12 (stereo partly specified) | inconclusive: 28.2 µM [fluorescent, side channel, partial curve] | –
8 | O=[N+]([O-])c1ccc2[nH]c(O)c(N=NC(=S)NCC3CCCO3)c2c1 (stereo unspecified) | – | inactive: 9.01%
9 | N#Cc1cccc(C(c2nnnn2C2CCCC2)N2CCCCCC2)c1 (stereo unspecified) | inconclusive: 31.6 µM [fluorescent, side channel, partial curve] | –
10 | c1ccc(N2CCN(c3ccc4nncn4n3)CC2)nc1 | inconclusive: 39.8 µM [inhibitor, single point] | –
11 | COc1cc(/C=C2\C(=N)N3N=C(C)SC3=NC2=O)cc(OC)c1OCCOc1ccccc1C | inconclusive: 11.2 µM [quencher, side channel, partial curve] | –
12 | CCN(Cc1ccccc1)C(=O)Cc1c[nH]c2ccccc12 | inconclusive: 20 µM [inhibitor, single point] | –
13 | COc1ccc(/C=C/c2nnc(NC(=O)CSc3ccc(Cl)cc3)s2)cc1 | inconclusive: 39.8 µM [inhibitor, single point] | –
14 | CCOC(=O)c1sc(Nc2cccc(C)c2C)nc1C | inconclusive: 39.8 µM [fluorescent, side channel, single point] | –
15 | CCN(CCCNC(=O)c1c(C)cc(=O)oc1C)c1cccc(C)c1 | inconclusive: 31.6 µM [inhibitor, partial curve, poor fit] | –
16 | COc1ccc(-c2ccnc(-c3ccc(OCCCF)cc3)n2)cc1 | inconclusive: 10 µM [quencher, side channel, partial curve] | –
17 | COc1ccc(-c2nc(SCC(=O)NC3CCCC3)c(-c3ccc(OC)cc3)[nH]2)cc1 | inconclusive: 25.1 µM [quencher, side channel, partial curve] | –
18 | Cc1ccc(C2C=C(c3ccccc3)Nc3nc(N4C(=O)CCC4=O)nn32)cc1 (stereo unspecified) | – | inactive: -13.6%

Row | SMILES | Potency | FP activity change, negative = inhibition
19 | CC(C)c1ccccc1NC(=O)CNCCOc1ccccc1F | inconclusive: 14.1 µM [inhibitor, partial curve] | –
20 | COc1ccc(NC(=O)c2cc3c(Cl)nc4ccccc4c3s2)cc1OC | inconclusive: 8.91 µM [quencher, side channel, partial curve] | –
21 | CC1Oc2ccccc2C=C1/C=N/NC(=O)c1ccccc1O (stereo unspecified) | inconclusive: 25.1 µM [quencher, side channel, single point] | –
22 | Cn1cccc1-c1cc(C(=O)N/N=C/c2ccc(Cl)cc2)[nH]n1 | inconclusive: 10 µM [quencher, side channel, single point] | –
23 | O=C(Nc1cccc2ccccc12)c1ccc(Br)o1 | inconclusive: 22.4 µM [inhibitor, single point] | –
24 | O=C(O)c1cc(S(=O)(=O)N2CCCc3ccccc32)ccc1Cl | inconclusive: 35.5 µM [quencher, side channel, single point] | –
25 | COC(=O)CSc1ncnc2c1sc1nc(-c3ccco3)c3c(c12)CC(C)(C)OC3 | inconclusive: 31.6 µM [quencher, side channel, single point] | –
26 | CC1=NN(C(=O)c2ccc(Br)cc2)C(O)(c2ccccc2)C1 (stereo unspecified) | inconclusive: 17.8 µM [inhibitor, partial curve] | –
27 | COc1cccc(CN(C)C(=O)CCc2nnc(-c3ccsc3)o2)c1 | inconclusive: 17.8 µM [inhibitor, partial curve] | –
28 | O=C(Nc1ccccc1C(=O)O)c1cccc(S(=O)(=O)Nc2ccc(Br)cc2)c1 | inconclusive: 25.1 µM [quencher, side channel, partial curve] | –
29 | CCN(CC)CCCNC(=O)c1c(O)c2cc(F)cc3c2n(c1=O)C(C)CC3 (stereo unspecified) | inconclusive: 3.16 µM [inhibitor, full curve] | –
30 | CCCC(=O)Nc1nc2ccc(NC(=O)c3c(F)c(F)c(OC)c(F)c3F)cc2s1 | inconclusive: 2.82 µM [quencher, side channel, partial curve] | –
31 | O=C(O)C(Cc1c[nH]c2ccccc12)NS(=O)(=O)c1ccc(Br)cc1 (stereo unspecified) | inconclusive: 12.6 µM [quencher, side channel, partial curve] | –
32 | COc1ccc(C(CNC(=O)c2ccc(C)c(S(=O)(=O)Nc3ccccc3OC)c2)N2CCCC2)cc1 (stereo unspecified) | inconclusive: 39.8 µM [fluorescent, side channel, single point] | –
33 | Cn1c(=O)n(Cc2ccccc2Cl)c2ccccc21 | inconclusive: 7.94 µM [fluorescent, side channel, full curve, poor fit] | –
34 | Cc1cc(NC(=O)Nc2c[nH]c(=O)[nH]c2=O)ccc1Br | inconclusive: 35.5 µM [fluorescent, single point] | –
35 | O=S(=O)(c1ccc2ccccc2c1)N1CCN(S(=O)(=O)N2CCOCC2)CC1 | inconclusive: 15.8 µM [fluorescent, side channel, partial curve] | –
36 | CC(C)(C)c1ccc(OCc2ccc(C(=O)N/N=C/c3ccc(O)c(O)c3)cc2)cc1 | inconclusive: 14.1 µM [quencher, side channel, partial curve] | –
